In the supplement of paper PMC3334620:
The full ranking holds about 33,000 sequences; the median of “E-score (-0.5 to 0.5)” is about -0.041, and the highest 2% start at about 0.37. This is one part of the list.

target: T1, Ecm22 (UniProt Q05958); experiment: PBM E-score (8-mer binding enrichment) (E-score (-0.5 to 0.5)); higher = stronger / more preferred TF binding; most listed sequences are background and not binding sites; settings: protein concentration: 200 nM; construct: GST-full length
T1 sequence: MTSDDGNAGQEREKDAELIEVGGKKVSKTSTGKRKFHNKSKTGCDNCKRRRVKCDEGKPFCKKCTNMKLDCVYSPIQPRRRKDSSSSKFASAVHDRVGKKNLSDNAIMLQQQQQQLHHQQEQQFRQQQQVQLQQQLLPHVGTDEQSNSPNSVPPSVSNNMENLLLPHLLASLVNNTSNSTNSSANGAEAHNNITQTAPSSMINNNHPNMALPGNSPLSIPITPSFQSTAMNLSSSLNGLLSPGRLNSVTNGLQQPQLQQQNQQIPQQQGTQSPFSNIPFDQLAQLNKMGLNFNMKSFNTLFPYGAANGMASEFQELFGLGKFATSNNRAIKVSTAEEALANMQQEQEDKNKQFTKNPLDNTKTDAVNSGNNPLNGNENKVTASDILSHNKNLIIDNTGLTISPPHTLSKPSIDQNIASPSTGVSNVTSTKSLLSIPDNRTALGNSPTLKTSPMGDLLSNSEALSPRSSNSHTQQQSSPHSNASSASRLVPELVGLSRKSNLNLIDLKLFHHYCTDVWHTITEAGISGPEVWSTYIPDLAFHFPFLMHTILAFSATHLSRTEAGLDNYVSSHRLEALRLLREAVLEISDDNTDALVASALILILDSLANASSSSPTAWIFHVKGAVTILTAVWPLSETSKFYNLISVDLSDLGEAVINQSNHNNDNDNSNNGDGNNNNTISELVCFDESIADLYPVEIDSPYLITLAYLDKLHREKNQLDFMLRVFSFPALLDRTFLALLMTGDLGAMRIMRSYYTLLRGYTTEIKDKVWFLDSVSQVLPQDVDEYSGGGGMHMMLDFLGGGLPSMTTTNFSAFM
How it was run: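 Bound GST-tagged yeast transcription factors, applied at about 100-200 nM to double-stranded universal all-10-mer Agilent arrays, were detected with fluorescent anti-GST. Scans were normalised with masliner. A modified Wilcoxon-Mann-Whitney statistic, the E-score, was assigned to each ungapped eight-base word pooled with its reverse complement by the Universal PBM Analysis Suite.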

Row | Sequence | PBM E-score
1 | ACACCTGG | -0.214
2 | GAAGGTCC | 0.0597
3 | GGTCAATA | 0.0278
4 | ATGGTTCG | 0.132
5 | AGGTTAGG | -0.18
6 | AACAAAAA | 0.136
7 | ACCCAGGT | -0.241
8 | TAGCACCA | -0.229
9 | CGCAACTC | -0.016
10 | GCGAGTCA | 0.134
11 | CTTGCGAA | 0.214
12 | ACTGCGTC | -0.128
13 | ACTCGTTC | 0.466
14 | ATCGTCGG | 0.175
15 | GAACGCAA | 0.0693
16 | ACGGAAAT | 0.25
17 | CTAATAAC | 0.183
18 | AGTATAGG | -0.213
19 | CATGCAAC | 0.0872
20 | AAAAGACC | -0.19
21 | CCAGCGAC | -0.231
22 | CTTGCATC | -0.0202
23 | ATGCCGCC | -0.0499
24 | AGCGACTA | 0.161
25 | CTCGCGCC | 0.0485

Row | Sequence | PBM E-score
26 | CAAGGCTA | -0.0293
27 | ACATCCTA | -0.147
28 | ACTCTTTA | -0.165
29 | AATGCGTA | 0.118
30 | GTGCGTGA | 0.0975
31 | AGTGACGA | 0.0498
32 | AGAGACAT | -0.195
33 | CACGTCCG | -0.21
34 | AGAGTTTA | 0.0891
35 | GGGGTTAA | -0.266
36 | CGGACGGA | -0.0276
37 | AACCGGAT | -0.0117
38 | ATGTTCCG | -0.016
39 | GATCATCC | 0.134
40 | CCCGCACC | 0.0314
41 | ACAATTAG | -0.0347
42 | CTCAAATA | -0.0528
43 | GGTAAGAC | 0.0434
44 | CTGATTTA | -0.036
45 | AGCTGGAT | 0.088
46 | CTTATACA | -0.123
47 | ACAAGGCC | -0.181
48 | ACCAATCC | -0.249
49 | GACACTGA | -0.0448
50 | CCTTGAAC | 0.0353

Row | Sequence | PBM E-score
51 | AAACTGGT | 0.0364
52 | GTAGCACA | -0.0815
53 | GAGTGTAC | 0.2
54 | CACAAGCA | -0.151
55 | GGGCAACA | -0.0629
56 | ATTCAAGG | -0.157
57 | AACTGAGA | -0.14
58 | GATGATAA | 0.023
59 | CCCAATCG | -0.18
60 | ACCAGCGT | -0.0626
61 | ATCATGGG | -0.233
62 | AGCGTACA | 0.179
63 | CCCCCGAG | -0.231
64 | AGGCCCGG | -0.219
65 | AGAAGTTA | -0.125
66 | AAGGGCCC | -0.0372
67 | ATCACGCG | 0.248
68 | ATACTAGG | -0.162
69 | AAAAGGTG | -0.0672
70 | ACAGAGTA | 0.0174
71 | GGGTACCA | -0.317
72 | ATCGCCTA | -0.0443
73 | ATCCAGAA | 0.0321
74 | GAGAAATA | 0.0583
75 | AATAAGGC | -0.225

Row | Sequence | PBM E-score
76 | ATTAAGAA | 0.118
77 | CGGTCGAA | 0.109
78 | GCATTAGC | -0.103
79 | GGACCTCC | -0.152
80 | ATTCTCCC | -0.287
81 | CAGTCTGA | -0.00525
82 | CCATTCCG | -0.135
83 | ATGTTCTG | 0.0525
84 | TCAAACAA | -0.155
85 | CTTTGAAC | 0.0201
86 | AAGTCAAG | -0.253
87 | CGGATTGC | -0.0216
88 | CACTTCAC | -0.307
89 | AGCGCAAC | 0.145
90 | GTGTAAAA | -0.0587
91 | ATTTTAAA | -0.0344
92 | ATGCGGGA | 0.0379
93 | CTCCTATC | 0.0551
94 | AAGTAGGT | -0.0722
95 | GGTATTGA | -0.0499
96 | GCCTTTAC | 0.0442
97 | AATACACT | -0.0507
98 | GGTCTATA | 0.0785
99 | AGTGGGCC | -0.116
100 | GTTGGGCA | 0.0114

Row | Sequence | PBM E-score
101 | CTTGCCAC | -0.175
102 | AGTGCTTA | -0.0659
103 | ACAAATAG | 0.0509
104 | CACCCCAA | 0.0261
105 | CCCGTTTA | 0.433
106 | CCAGGCAG | -0.159
107 | CCCTGCCA | -0.124
108 | AAATCGTT | 0.319
109 | CAGTCAGA | -0.25
110 | ACAGAGCT | -0.297
111 | CCGGGGGC | -0.189
112 | CCGTATAA | 0.473
113 | ACGTTTTA | 0.166
114 | GACTATAC | 0.283
115 | TACCTTAA | 0.247
116 | GCCTCGCA | 0.205
117 | AATCCACT | -0.119
118 | CTAAGGCC | -0.346
119 | CATGTAAG | -0.058
120 | CCGAGGAA | 0.0818
121 | ACGTGTCT | 0.00104
122 | AGGATTGG | -0.26
123 | CCCAACCG | 0.0194
124 | CACAAGTA | -0.0291
125 | AGAGATCG | 0.00312

Row | Sequence | PBM E-score
126 | AACCGCTC | 0.104
127 | AGAAGCAA | -0.0442
128 | ACCATCGC | 0.0639
129 | ACTTTTGA | -0.147
130 | ACAATACG | 0.335
131 | CGACTTCA | 0.142
132 | ACACACTG | 0.0804
133 | ACTGCAAG | -0.116
134 | CCAGAGTA | -0.15
135 | CTGCCAGC | -0.24
136 | GGAGAGTA | -0.176
137 | TCTTAGAA | -0.126
138 | CACTTATA | 0.166
139 | ACACATAT | -0.0183
140 | CACTAAGG | -0.109
141 | CTGAGGTA | -0.0705
142 | GCGTGATA | 0.127
143 | CAATGACC | -0.054
144 | CATTGTTC | -0.0668
145 | GCTATTGA | -0.0201
146 | AAAGTGCC | -0.251
147 | AATAGCCG | -0.134
148 | ACTTCATA | -0.101
149 | CACGGATA | 0.0566
150 | ACAGTGCA | -0.0729

Row | Sequence | PBM E-score
151 | GTTGCTTA | 0.0243
152 | CGAGTTTA | 0.159
153 | AACTTTGC | -0.0161
154 | AACATCCG | 0.158
155 | GCGTGTTA | 0.0245
156 | CCACTTTA | 0.0441
157 | CCCTAACG | 0.0397
158 | AAACCGAA | 0.179
159 | CCAAATTA | -0.0696
160 | CCTACACA | -0.12
161 | ACCCATCG | 0.0454
162 | TCAGCTGA | -0.0348
163 | ACCATCCG | -0.0185
164 | ACTTTGCG | 0.071
165 | ATGAGCAG | -0.189
166 | ATGCCGGG | -0.159
167 | ACGGTAGA | 0.0495
168 | CGGATGAG | -0.0455
169 | AGACAACG | 0.0578
170 | AATTATAC | 0.281
171 | AAAAGAGA | 0.00204
172 | CACCGGTG | -0.131
